Source: the supplement of paper PMC3334620
The full ranking holds about 33,000 sequences; the median of “E-score (-0.5 to 0.5)” is about -0.041, and the highest 2% start at about 0.37. The list shows a part of the results.

Each sequence was assayed against T1, Ecm22 (UniProt Q05958) (assay: PBM E-score (8-mer binding enrichment) (E-score (-0.5 to 0.5)); higher = stronger / more preferred TF binding; most listed sequences are background and not binding sites). Conditions: protein concentration: 200 nM; construct: GST-full length.
T1 sequence: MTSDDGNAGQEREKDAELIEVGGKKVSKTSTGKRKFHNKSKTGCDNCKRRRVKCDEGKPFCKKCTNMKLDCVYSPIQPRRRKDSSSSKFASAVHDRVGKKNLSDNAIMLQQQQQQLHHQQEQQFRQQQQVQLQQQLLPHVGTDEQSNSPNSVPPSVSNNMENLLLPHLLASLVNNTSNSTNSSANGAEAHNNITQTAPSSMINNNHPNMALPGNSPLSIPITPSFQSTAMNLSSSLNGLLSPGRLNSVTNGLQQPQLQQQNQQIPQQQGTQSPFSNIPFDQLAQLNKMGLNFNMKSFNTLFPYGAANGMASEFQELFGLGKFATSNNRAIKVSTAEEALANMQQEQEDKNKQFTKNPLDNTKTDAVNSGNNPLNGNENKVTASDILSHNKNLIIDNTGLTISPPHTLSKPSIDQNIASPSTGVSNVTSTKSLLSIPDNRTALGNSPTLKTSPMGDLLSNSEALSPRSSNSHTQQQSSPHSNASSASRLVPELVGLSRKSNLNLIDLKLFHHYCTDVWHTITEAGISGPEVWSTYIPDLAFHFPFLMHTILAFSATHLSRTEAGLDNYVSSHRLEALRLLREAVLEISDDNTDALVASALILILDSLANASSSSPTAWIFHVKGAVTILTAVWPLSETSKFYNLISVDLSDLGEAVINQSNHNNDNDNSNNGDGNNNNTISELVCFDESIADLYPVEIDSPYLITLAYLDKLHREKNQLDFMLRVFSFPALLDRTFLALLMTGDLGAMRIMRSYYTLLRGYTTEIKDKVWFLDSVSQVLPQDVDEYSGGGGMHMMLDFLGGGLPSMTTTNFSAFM
In short: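 E-scores (a modified Wilcoxon-Mann-Whitney statistic) were assigned by the Universal PBM Analysis Suite to every ungapped eight-base word pooled with its reverse complement. The input came from universal all-10-mer Agilent arrays made double-stranded by primer extension and probed with GST-tagged yeast transcription factors at about 100-200 nM. Fluorescent anti-GST detected bound protein, and masliner normalised the scans.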

Row | Sequence | PBM E-score
1 | AAGGTGGC | -0.0479
2 | CAAATCGA | -0.05
3 | ATACGTTC | 0.318
4 | GGTGCTTA | -0.157
5 | ACTCTATC | -0.12
6 | CCGCAATA | 0.0155
7 | CAACAAAG | 0.0253
8 | ACCCGGCA | -0.0161
9 | GACGCCGC | 0.00871
10 | ACAGTACG | 0.326
11 | GATACGAA | 0.445
12 | ATCACAAA | -0.18
13 | GCCAGGGA | -0.0729
14 | CACAGCCG | 0.06
15 | CTCAGAAC | -0.0802
16 | AGTCCTTA | -0.242
17 | CCGTTAAA | 0.278
18 | AACATCGA | -0.0105
19 | ATTGCTAG | -0.191
20 | ACAGGCTC | -0.0921
21 | GGAGCTCA | -0.143
22 | CGGTTCAA | 0.00076
23 | GGGGTAAC | -0.0259
24 | AGCGTGGA | -0.0519
25 | CGACAGAA | 0.19

Row | Sequence | PBM E-score
26 | GAGTCTAA | -0.115
27 | CGGCTACG | 0.283
28 | ACAAAGGG | -0.338
29 | CATCCGAG | 0.163
30 | GGCACACA | -0.122
31 | CGTGTTAA | -0.0172
32 | GCTTTCAA | -0.0189
33 | CGTGCCAC | -0.129
34 | AGAAGTCA | -0.222
35 | AGGCGCGC | 0.0957
36 | CTCCTGCA | -0.0892
37 | ATACTGTC | 0.0723
38 | AGAGAACG | 0.288
39 | ATGTTTAA | -0.0568
40 | CATCAATA | 0.101
41 | CGAAACCA | 0.28
42 | ACCGATAT | 0.138
43 | AACATTAC | -0.153
44 | CAATAGGA | -0.143
45 | CGAACCCG | 0.214
46 | ACAAACGC | 0.174
47 | ACGCCGAA | 0.132
48 | AGATGGGC | -0.226
49 | TAGTAATA | -0.00327
50 | ACTAGGGA | -0.175

Row | Sequence | PBM E-score
51 | ACTACCAT | 0.0241
52 | AAGCTTAT | -0.0325
53 | AACAACAC | 0.0503
54 | CCATTCGG | -0.0355
55 | AAGAGACT | -0.202
56 | AGATATCT | -0.176
57 | CTCGGTAA | 0.277
58 | ACCCGTAT | 0.391
59 | GCGTCTAC | -0.0526
60 | AGATTCTA | 0.0997
61 | CACGAATA | 0.117
62 | CAAAGTAC | 0.196
63 | AATTAAAC | 0.219
64 | AGGCTTAG | -0.158
65 | GCAAGGAA | 0.076
66 | CAGGTCGG | -0.101
67 | GCAGGAGA | -0.041
68 | ACCACTTA | -0.0146
69 | CTATCCGC | 0.24
70 | CTTATTGA | -0.155
71 | GACCCAGC | -0.113
72 | ATACTACG | 0.197
73 | CAGCCATC | 0.0195
74 | AGCGGGCG | 0.00567
75 | ATCTAGGA | -0.11

Row | Sequence | PBM E-score
76 | ATGATAAG | -0.0663
77 | AATAAGGT | -0.00164
78 | ACAAGCGT | -0.0149
79 | ATCTTTAG | -0.174
80 | CCGATGAC | -0.0316
81 | AGTCGCGC | 0.0329
82 | CCACTCGG | 0.155
83 | TATACGCA | 0.415
84 | ACAGCGAT | -0.0162
85 | CGATGACC | 0.169
86 | CGTCCTGC | -0.168
87 | CGGCTCCA | -0.132
88 | ACCAATTC | -0.0291
89 | CAAACAGA | -0.00197
90 | ATTCCGCC | -0.0947
91 | CCAGTGCG | 0.00947
92 | CATGTTGC | -0.15
93 | GCATTCCA | -0.137
94 | ATGGTGAA | -0.0336
95 | AAAACTAA | 0.0384
96 | CTGATGCA | -0.176
97 | ATGAATCC | -0.00732
98 | CGCATCCC | -0.0314
99 | CTCATATA | -0.0079
100 | GTTAAGTA | -0.114

Row | Sequence | PBM E-score
101 | AATATCGA | -0.144
102 | CGCCGGTA | 0.0215
103 | ACGGGCCT | 0.0347
104 | CACGGGAG | -0.0747
105 | CAGCCGAA | -0.0172
106 | AAACTATT | 0.016
107 | GATCCGGC | -0.0487
108 | CGCGAAAC | 0.107
109 | CGTACGTA | 0.367
110 | AGCGCAGA | -0.0942
111 | TAAAAAAA | -0.134
112 | ACTGTACA | 0.0405
113 | GGTTGAGA | -0.262
114 | ACTTCTAC | -0.0305
115 | TATCTGGA | -0.182
116 | AGCGTGTC | -0.146
117 | CACGCCGC | -0.0505
118 | CGCCGACA | -0.0663
119 | ATTCCTAG | -0.229
120 | CGGTGTGC | -0.0703
121 | ACGGCTTG | 0.00028
122 | CAGCCAAC | -0.133
123 | CTATATAA | -0.102
124 | AGCGGTAT | 0.0733
125 | AATATTCT | -0.0746

Row | Sequence | PBM E-score
126 | CAGAACTG | 0.132
127 | CGGACCCA | -0.0301
128 | AACGTGAG | -0.12
129 | AAGGCAGG | -0.371
130 | GTGCATCA | -0.024
131 | GGCAGCTA | -0.0914
132 | AGAGCGTC | 0.0691
133 | AGGTCAAT | -0.0803
134 | CCAACCCA | -0.36
135 | ATTCAGGC | 0.062
136 | CCACGGTC | -0.118
137 | ACGACCAT | 0.322
138 | AAAGGCGA | 0.0319
139 | GGCGCTAC | -0.0339
140 | ACACGGTG | -0.0453
141 | CGGATCGA | 0.219
142 | GCGGACTA | -0.0818
143 | CGAATTAG | 0.0708
144 | CACCTTCG | 0.0454
145 | GGGTATAC | 0.15
146 | TCGCTGAA | 0.188
147 | AACGTGCG | 0.201
148 | ATAAGTGG | 0.0401
149 | CGCACCAC | 0.0793
150 | CTACTTCA | -0.158

Row | Sequence | PBM E-score
151 | AGGCAACA | -0.307
152 | TCGCACAA | 0.262
153 | AGGCGGAA | -0.131
154 | GGGCGGTA | -0.161
155 | ATGTAGGC | -0.193
156 | ATACATTG | 0.021
157 | CCTCTACG | 0.256
158 | GCAGATCA | -0.171
159 | AAACCAAC | -0.201
160 | ATTATAGG | -0.101
161 | ATCGTATA | 0.488
162 | AATTACAC | -0.0453
163 | CAAGTGCA | -0.24
164 | CAATAAGG | -0.296
165 | AAACCTAT | -0.218
166 | GCAATTAC | -0.144
167 | TAATCAAA | -0.0825
168 | ATGGCGGC | -0.231
169 | ACTGACCA | -0.0999
170 | ACACCAAT | 0.0146
171 | ACCAGGAT | -0.0234
172 | CCTCCGGC | -0.0657
173 | CTATATGA | 0.173
174 | TCCTGACA | -0.0171
175 | TCAGCTCA | -0.0482

Row | Sequence | PBM E-score
176 | CACTGACA | 0.139
177 | CATCAATG | -0.153
178 | CTGTTCAC | -0.0303
179 | CTCCGGTA | 0.0575
180 | AAAGTCTG | -0.284
181 | ACAGGCAG | -0.0137
182 | ACACCTGA | 0.079
183 | GTTAGCGA | 0.248
184 | AAGGAATC | -0.0813
185 | ATTACCCG | -0.0442
186 | ATGCTTCC | -0.0277
187 | ACACGGCA | 0.108
188 | CTCCGCTC | 0.0963
189 | AAGACGGT | -0.233
190 | CCGGTGGC | -0.135
191 | AGCCTCAA | -0.184
192 | GCCTTCTA | -0.137
193 | ACCTTATC | -0.0716
194 | CCCACCCG | 0.0357
195 | AACTTCGT | 0.287
196 | ACCCAATG | -0.323
197 | ACGGCATC | 0.135
198 | ATGTACTC | -0.0519
199 | GTTTTTGA | -0.0446
200 | GTTGTGCA | -0.00507

Row | Sequence | PBM E-score
201 | CCGGTATA | 0.199
202 | ACGGATCA | 0.157
203 | AAATTCTA | 0.0181
204 | AGTCAATA | -0.016
205 | AGCGGCGA | 0.0628
206 | GCTTTGCC | -0.175
207 | GCTTCCAA | -0.133
208 | CCCGCACA | 0.139
209 | AAGGTTGT | -0.276
210 | TTAACTAA | 0.0931
211 | AACCTGGG | -0.247
212 | TCCCCACA | -0.207
213 | GCAAAGTA | 0.0957
214 | GGGTTCTA | -0.256
215 | AAAGCTTG | 0.118
216 | AAAAGCCC | -0.29
217 | AGTGAGGA | 0.00222
218 | CCTTACCC | -0.164
219 | CTTCTATA | -0.00732
